# Read counts are not given, so values of variants with three or more changes are uncertain.
# B1: LINE1-mini (parent)
# chain: GGCAGAGCUCAACACAGCGUGGCAAAGUGGCUGUGGCUAGACUGCC
# Variants of: B1
# Test: self-cleavage, relative activity (ratio to wild type); higher = more cleavage; in vitro, sequencing; the parent is a self-cleaving ribozyme
row,Variant,self-cleavage
1,GGCAGAGCUCAACACAGUGUGUCAAAGAGGCUGUGGCUAGACUGCC,1.35
2,GGCAGAGCUCAACACAGUGUGGAAAAGUUGCUGUGGCUAGACUGCC,0.9
3,GGCAGAGCUCAACACAGUGUGGCAAAGUGGCUGUUUCCAGCCUGCC,0.09
4,GGCAGAGCUCAACACAGUGUGGCAAAGUGGCCGUGGCUAGACCGCC,0.03
5,GGCAGAGCUCAACACAGUGUGGCAAAGUGGCCGUGGCUUGACUGCC,0.37
6,GGCAGAGCUCAACACAGUGGGGCAAAGUGGCUGUGGGUAGACUGCC,0.01
7,GGCAGAGCUCAACACAGUGUUGCAAAGUUCACGUGGCUAGACUCCC,0.04
8,GGCAGAGCUCAACACAGUGUGGCAAAGUGGCUGGGGCUAGAUUGCU,0.01
9,GGCAGAGCUCAACACAGUAUGGCAAAGUUGCUGUGGCUAGACUGCC,0.12
10,GGCAGAGCUCAACACAGUCUGGCAAAGUGGCUGUGGCUAGAAUGCC,0.16
11,GGCAGAGCUCAACACAGUGUGGCAAAGUGGCUUUGGCUUGACUGCC,0.08
12,GGCAGAGCUCAACACAGUGUGGCAAAGUGGCGGUAGCUUGACUGCC,0.05
13,GGCAGAGCUCAACACAGUGUGGCAAAGUGCCUGUGGCUAGACUGCA,0.19
14,GGCAGAGCUCAACACAGUAUGACAGAGUGGCUGUCGCUAGAAUGCC,0.01
15,GGCAGAGCUCAACACAGUGUUGCAAAGCGGCUGUAGCUCGACUGCC,0.1
16,GGCAGAGCUCAACACAGUGUGGCAAAGUGGCUGUGGCUAGACCGUC,0.02
17,GGCAGAGCUCAACACAGUGUGGCAAAGUGGCUGUGCCUAGAUUGCC,0.05
18,GGCAGAGCUCAACACAGUGUGGCAAAGUGGCUGUUGCUAGUCUGCC,0.09
19,GGCAGAGCUCAACACAGUGUGUCAAAGUGGCUGUGGCUAGAGUGCC,0.07
20,GGCAGAGCUCAACACAGUGAGGCAAAGUUGCUGUGGCUAGACUGCC,1.09
21,GGCAGAGCUCAACACAGUGUGGCAAAGCGGCUGUGGGUAGACUGCC,0.02
22,GGCAGAGCUCAACACAGUCUGGCAAAGGGGCUGUGGCUAGAGUGCC,0
23,GGCAGAGCUCAACACAGUAUGGCAAUGUGGCUGUGGCUAGACUGCC,0.52

row,Variant,self-cleavage
1,GGCAGAGCUCAACACAGUGUGGUAAAGUUGCUGUGUCUAGACUGCC,0.07
2,GGCAGAGCUCAACACAGUGUGGCAAAAUGGCUGUGGCUAGACUGAC,0.33
3,GGCAGAGCUCAACACAGUGUGGCAAAGUGGCUGUGGCCAGACUUCC,0.03
4,GGCAGAGCUCAACACAGUGUGACAAACUGGCUGUGGCCAGACUGCC,0.04
5,GGCAGAGCUCAACACAGUCUGGCAAAGUGGCUGUGGCUGGACUGCC,0.06
6,GGCAGAGCUCAACACAGUGUGGCAAAGUGGCUUUGGCGAGACUGAC,0.01
7,GGCAGAGCUCAACACAGCAUGGCCAAGAGGCUGUGGCUAGACUGCC,0.1
8,GGCAGAGCUCAACACAGUGUGGCAAAGUGGAUGUGGCUGGACUGCC,0.13
9,GGCAGAGCUCAACACAGUGUGGCAAAGUGCCUGUGUCUAUACUCCC,0.07
10,GGCAGAGCUCAACACAGUGUGGCAAAUUGGCUGUGGCUAGACAGCC,0.01
11,GGCAGAGCUCAACACAGUGUUGCAAACUGGCUGUGGCUUGACUGCG,0.07
12,GGCAGAGCUCAACACAGUGUGGCAAAGUGGCUGUGGCGAUACUGCC,0.2
13,GGCAGAGCUCAACACAGUGUGGCAAACUGGCUGCGGCUUGAGUGCC,0.02
14,GGCAGAGCUCAACACAGUGUGGGUAAGUGGCUGUUGCUAGACUGCC,0.06
15,GGCAGAGCUCAACACAGUGUGGCAAAGUGGAUGUGGCUAGACUGCA,0.04
16,GGCAGAGCUCAACACAGUGUGGCAAAGCGGCUGUGGGUAGACUACC,0.06
17,GGCAGAGCUCAACACAGUGUGGCAAAGUGGCUAUGGCUAGAUUGAC,0.02
18,GGCAGAGCUCAACACAGUGUGGGAAAGUUGCUGUGGCUAGAGUGCC,0.01
19,GGCAGAGCUCAACACAGUGUGGAAAAGGGGCUGUGGCUAGACUGCC,1.18
20,GGCAGAGCUCAACACAGUGAGGCAAAGGGGCUGUGGCUAGACUUCC,0.08
21,GGCAGAGCUCAACACAGUGUGGCAAAGUGGCUGCAGCUAGACUGCC,0.02
22,GGCAGAGCUCAACACAGUGUGGGAAAGUGGCUGUGGCUCGACUGCC,0.18
23,GGCAGAGCUCAACACAGUAUGGAAAAGUGGCUAUGUAGAGACUGCU,0

row,Variant,self-cleavage
1,GGCAGAGCUCAACACAGUGUGGCAAAAUGGCUGUGGCUAGACGGCC,0
2,GGCAGAGCUCAACACAGUGUUGCACAGUGGCUGUGGCUAGACUGCC,0.41
3,GGCAGAGCUCAACACAGUGUGGCAAAGUGUCUGUGGCUAGACUGCU,0.22
4,GGCAGAGCUCAACACAGUGUGGCAAAGCGGAUGUGGCUAGACUCCU,0.02
5,GGCAGAGCUCAACACAGUGUGGCAAAGUGGCUGAGCCUAGACUGCC,0.03
6,GGCAGAGCUCAACACAGUGUGGCAAAUUGCAUGUGGCUACACUGCC,0.02
7,GGCAGAGCUCAACACAGUGCGGCAAAGUGGUUGUGGUUAGACUGCC,0.04
8,GGCAGAGCUCAACACAGUGUGGCAAAGUGUCUGUGGCUACACUGUC,0.01
9,GGCAGAGCUCAACACAGUGUGGCAAAGUGGCUCUGCCUACACUGCC,0.01
10,GGCAGAGCUCAACACAGUGUGGCAAAGUGGCAGUGGCGACACUGCC,0.01
11,GGCAGAGCUCAACACAGUGUGGGAAAGUGGCUUUGGCUAGACUGAC,0.02
12,GGCAGAGCUCAACACAGUGUGGCAAAGUGGCUGUGGUUAGUCUACC,0.04
13,GGCAGAGCUCAACACAGUGUAGCAAAGUGGCUGUGUCUAGACUGCC,0.06
14,GGCAGAGCUCAACACAGUGUGGCAAAGUGGCUGGGGCUAGACUGUC,0.05
15,GGCAGAGCUCAACACAGUGGGGCAAAGUGGCAGUGGCUAGACUGCC,0.02
16,GGCAGAGCUCAACACAGUGGGGCAAAGUGGCUGUGCCUAGACUGCG,0.02
17,GGCAGAGCUCAACACAGUGUGGCAAAGUGACUGUCGCUAGACUGCC,0.08
18,GGCAGAGCUCAACACAGUGGGGCAAAGUGGCUGUACCUAGACUGGC,0.11
19,GGCAGAGCUCAACACAGUGUGGUAAAGUGGCUGUGACUAGACUGCC,0.11
20,GGCAGAGCUCAACACAGUGUGGCAAAGUGGCUGUGUCUAGACUGCA,0.01
21,GGCAGAGCUCAACACAGUGUGCCAAAGUGGCUGUGGCUAGAUUGCC,0.15
22,GGCAGAGCUCAACACAGUGUGGCAAAGCAACUGUCGCUAGACUGGC,0.06
23,GGCAGAGCUCAACACAGUGUGGCAAAGAGGCUUUGGCUAGACCGCC,0.02

row,Variant,self-cleavage
1,GGCAGAGCUCAACACAGUGUGACAAAGCGGCUGUGGCUAGACAGCC,0.06
2,GGCAGAGCUCAACACAGUGAGGCAAAGUGGCGGUGGCUAGACUGCC,0.04
3,GGCAGAGCUCAACACAGUGUGGCAAAGUGGCUGUGGUUAGAGUGCC,0.04
4,GGCAGAGCUCAACACAGUGUGGUAAAGUUGCUGUGGCUAGACUGCC,1.46
5,GGCAGAGCUCAACACAGCAUGGCGAAGUGGCUGUGGCUAGACUGAC,1.06
6,GGCAGAGCUCAACACAGUGUGGGAAAGUGGCUGUGGCUAGACUGAC,1.25
7,GGCAGAGCUCAACACAGUGUCGCAAAGUGGCUGUUGCUAGACUGCC,1.01
8,GGCAGAGCUCAACACAGUGUGGCAAAGUGGCUGUUGCUAGAAUGCC,0.04
9,GGCAGAGCUCAACACAGUGUUUCAAGGUGGCUGUGGCUAGACUGCC,1.61
10,GGCAGAGCUCAACACAGUGUGGCAAAGUGGCUUUAGCUAGAGUGCC,0.01
11,GGCAGAGCUCAACACAGUUUGGCAAAGUGGCUGUGGCUAGCCUUCC,0.02
12,GGCAGAGCUCAACACAGUGUGGGAAUGUGGCUGUUGCUAGACUGCC,0.03
13,GGCAGAGCUCAACACAGUGUGGCAAAUUGGCUGUGGCUAGCCUGCC,0.01
14,GGCAGAGCUCAACACAGUGCGGCAAUGCGGCUGUGGCUAGACUGCC,0.25
15,GGCAGAGCUCAACACAGUGUGGCAAAGUGGCUGUGGCUAGACUUAA,0.08
16,GGCAGAGCUCAACACAGUGUGGCAAAGUGGAUGUAGCUAGACUGCC,0.03
17,GGCAGAGCUCAACACAGUAUGGCAAAGUGGCUGUGGCGGGACUGCA,0.01
18,GGCAGAGCUCAACACAGUGUGGCAAAGUGGCUGUGAUUAGACUGCG,0.06
19,GGCAGAGCUCAACACAGUGUCGCAAAGUGGCUGUGGCUAGACUUCC,0.15
20,GGCAGAGCUCAACACAGUGUAGCAACGUGGCUGUGGCUAGACUGCC,0.63
21,GGCAGAGCUCAACACAGUGUGCCAAAGUGGCUGUGGCUAGACUGCG,0.2
22,GGCAGAGCUCAACACAGUGUGCCAGAGUGGCUGUGGCUGGACUGCC,0.16
23,GGCAGAGCUCAACACAGUGUGCCUAAGUGGCUGUGGCUCGACUGCC,0.21

row,Variant,self-cleavage
1,GGCAGAGCUCAACACAGUCUGGCAAAGUGGCUGUGGCUAGACCGCC,0.07
2,GGCAGAGCUCAACACAGUUUGGCAAAGUCGCUGUGGCUAGACUGGC,0.08
3,GGCAGAGCUCAACACAGUGUGCCAAAGUGACUGUGGCUAGACUGCC,0.95
4,GGCAGAGCUCAACACAGUGUGGCAAAGUGGCUGUCGCUAUAGUGCC,0.02
5,GGCAGAGCUCAACACAGUGUGGCAAAGUGGCUGUGGAUUGCCUGCA,0.05
6,GGCAGAGCUCAACACAGUGUGGCAAAGAGGCUGUGGCUAUACUGCC,0.83
7,GGCAGAGCUCAACACAGUGUGGCAAAGUGGCUAUGGCUAGAUUGCC,0.03
8,GGCAGAGCUCAACACAGUGUGGCAAAGUCGUUGUGGCUAGACUGCC,0.12
9,GGCAGAGCUCAACACAGUGUGGCAAAGUAGCUGUUGCUAGAAUGCC,0.05
10,GGCAGAGCUCAACACAGUGUGGCAAAGUGCCUCUGGCUAGACUGCC,0.03
11,GGCAGAGCUCAACACAGUGUGGCAAAGUUGCUGGGACUAGACUGCC,0.05
12,GGCAGAGCUCAACACAGUGUGGCAAAGUGGAUAUGGCUAGACUGCC,0.05
13,GGCAGAGCUCAACACAGUGUGGCAAAGUGGCUGUGGCUAUACUUCC,0.02
14,GGCAGAGCUCAACACAGUGUGGCAAAGUGGCUGAGGGUAGAGUGCC,0.01
15,GGCAGAGCUCAACACAGUGUGGCAAAGUGGCUAUGACUAGACUGCC,0.03
16,GGCAGAGCUCAACACAGUUUGUACAAGUGGCUGUGGCUAGACGGCC,0
17,GGCAGAGCUCAACACAGUGUGGCAAAGUUGCUGUGGCCAGACGGCC,2.11
18,GGCAGAGCUCAACACAGUGUGUCAUUGUGGCUGUGGCUAGACUGAC,0.01
19,GGCAGAGCUCAACACAGUGUGGCAAAGUGGCGGUGGCUAGACGGCC,0.05
20,GGCAGAGCUCAACACAGUCUGGCAAAGUGGCUGCGGCUAGACUGCU,0.06

# From the RNAGym collection of RNA variant scans (doi:10.7554/elife.90254)
